According to PubChem BioAssay AID485294 (National Center for Advancing Translational Sciences (NCATS), 2010):
Out of some 370,000 compounds screened, about 150 (0.041%) were called active. Inconclusive means that the source gave no clear call. Such entries were picked first, then a sample of the others. Calls come from the whole dose curve; as a rule, active = well fitted inhibition curve with a large enough effect; inconclusive = small, poorly fitted or top-dose-only effect; inactive = flat fitted curve, though single readings scatter. Potencies of inconclusive entries are left out as doubtful fits.
Note: nearly all actives have a fitted effect of over 25% in size.
Potency is the fitted concentration of half-maximal effect; tags give direction and shape of the fitted curve.

Each compound was assayed against Beta-lactamase (Escherichia coli (strain K12)) (UniProt P00811) (assay: qHTS Inhibitors of AmpC Beta-Lactamase (assay with detergent)). Details: AmpC hydrolysis of nitrocefin, absorbance 480 nm, 0.01% Triton; series mostly up to 114 µM.
Sequence of UniProt P00811 (P00811 whole entry, looked up): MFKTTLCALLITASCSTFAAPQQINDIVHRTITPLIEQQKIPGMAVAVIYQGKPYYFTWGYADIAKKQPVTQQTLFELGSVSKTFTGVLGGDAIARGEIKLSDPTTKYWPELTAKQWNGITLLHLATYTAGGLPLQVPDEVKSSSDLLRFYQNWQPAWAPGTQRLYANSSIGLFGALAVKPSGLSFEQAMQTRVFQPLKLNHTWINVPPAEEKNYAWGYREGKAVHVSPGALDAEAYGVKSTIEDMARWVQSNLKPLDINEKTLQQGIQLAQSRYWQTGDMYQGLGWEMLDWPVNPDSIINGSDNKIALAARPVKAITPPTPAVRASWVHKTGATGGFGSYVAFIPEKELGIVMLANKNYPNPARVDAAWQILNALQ
Procedure, shortened: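 20 mM phosphate pH 7.0 + 0.01% (detergent screen) or 0.0001% Triton X-100; 5.3 nM AmpC reagent; cpd preinc 15 min RT; nitrocefin (800 uM stock) to start; A480 q20 s × 4 min; Activity was normalised to no-enzyme and no-compound control wells.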
O=c1cc(-c2c(F)c(F)c(F)c(F)c2F)oc2c(F)c(F)c(F)c(F)c12 was tested, and the Potency was “inactive”. In the case of COc1ccc2oc(C(=O)OCC(=O)N3CC(C)CC(C)C3)c(C)c2c1 (configuration not stated), the Potency is reported as inconclusive [inhibitor, partial curve]. In the case of CN(C)c1ccc(NC(=O)Cn2c(=O)n(Cc3ccccc3)c(=O)c3ccccc32)cc1, the Potency is reported as inconclusive [inhibitor, partial curve]. For O=C(COC(=O)COc1ccc(Cl)cc1Cl)NC1CCCC1, the Potency was “inactive”. In the case of Cn1c(SCC(=O)Nc2ccccc2F)nnc1-c1cc2ccccc2o1, the Potency is reported as inconclusive [inhibitor, full curve, poor fit]. For O=S(=O)(c1ccc(Br)c2nsnc12)N1CCOCC1, the Potency was inconclusive [inhibitor, partial curve, poor fit]. In the case of COC(=O)c1cc(-c2ccc(C)cc2)n[nH]1, the Potency is reported as “inactive”. In the case of COC(=O)c1ccc(NC(=O)CCNS(=O)(=O)c2cccc3nsnc23)cc1, the Potency is reported as “inactive”. Cn1c(Cc2ccccc2)nnc1SCC(=O)Nc1cccc(S(=O)(=O)NC2=NCCCCC2)c1 was tested, and the Potency was inconclusive [inhibitor, full curve, poor fit]. For Cc1cc(C(F)(F)F)nn1CC(=O)NCC1CCCO1 (configuration not stated), the Potency was inconclusive [inhibitor, full curve, poor fit]. C/C(=N\NC(N)=O)C1(C)CCCCC1 was tested, and the Potency was inconclusive [inhibitor, full curve, poor fit]. For N=C1C(=O)OCC1c1ccccc1NC(=O)CN1CCOCC1 (configuration not stated), the Potency was inconclusive [inhibitor, partial curve, poor fit]. For CCN=C1NN=C(c2cc(C)n(CCc3ccccc3)c2C)CS1, the Potency was inconclusive [inhibitor, partial curve]. Cc1ccc2nc(N3CCN(C(=O)c4ccc(F)cc4)CC3)c(C#N)cc2c1 was tested, and the Potency was inconclusive [inhibitor, full curve, poor fit]. For O=C(NCc1cccs1)c1ccc(Cl)c(S(=O)(=O)N2CCCC2)c1, the Potency was “inactive”. In the case of Cn1nc(-c2ccc(Cl)cc2)c2cc(C(=O)N3CCN(C(=O)c4ccco4)CC3)sc21, the Potency is reported as inconclusive [inhibitor, full curve]. O=C1C(=O)N(CCCn2ccnc2)C(c2ccccn2)/C1=C(/O)c1ccccc1 (configuration not stated) was tested, and the Potency was inconclusive [inhibitor, full curve, poor fit]. For Cc1n[nH]c(=O)c2c(NC(=O)CSc3nncn3C(C)C)oc(C)c12, the Potency was inconclusive [inhibitor, full curve, poor fit]. With CC(C)(C)C1CCC2(CC1)C(C#N)=C(SCC(=O)NC1CCCCC1)NC(=O)C2C#N (configuration not stated) the Potency was inconclusive [inhibitor, full curve, poor fit]. O=C(O)c1cc(N/N=C/c2ccc(N3CCOCC3)cc2)ccc1Cl was tested, and the Potency was “inactive”. With CC(C)(C)c1ccc(OCCCC(=O)Nc2ccc(S(N)(=O)=O)cc2)cc1 the Potency was inconclusive [inhibitor, single point]. In the case of CCCCCN1CC(=O)N2Cc3[nH]c4ccccc4c3C[C@H]2C1=O, the Potency is reported as “inactive”. With O=C(c1ccco1)N1N=C(c2ccncc2)CC1(O)C(F)(F)F (configuration not stated) the Potency was “inactive”. With CN1CCN(C(=O)c2sc(=S)n(-c3ccccc3)c2N)CC1 the Potency was inconclusive [inhibitor, partial curve, poor fit]. For CCOC(=O)Cn1c(-c2ccccc2)nc2ccccc2c1=O, the Potency was inconclusive [inhibitor, full curve, poor fit]. In the case of CC(CNC(=O)c1ccccc1Cl)c1ccccc1 (configuration not stated), the Potency is reported as inconclusive [inhibitor, full curve, poor fit]. COc1cccc(/C=C/C(=O)c2ccc3c(c2)OCCO3)c1OC was tested, and the Potency was inconclusive [inhibitor, partial curve]. CCN(CC)Cc1cc(NC2=NS(=O)(=O)c3ccccc32)ccc1OC(=O)C(C)C was tested, and the Potency was inconclusive [inhibitor, partial curve, poor fit]. For O=[N+]([O-])c1ccc2c(c1)C(N1CCOCC1)/C(=C/COc1ccc3ccccc3c1Br)O2 (configuration not stated), the Potency was “inactive”. In the case of COc1ccc(/C=c2\s/c(=C(/C#N)C(=O)NCc3ccco3)n(-c3ccccc3)c2=O)cc1, the Potency is reported as inconclusive [inhibitor, full curve, poor fit]. COc1ccc(C(C)=O)c(Oc2nc(CN3CCOCC3)nc3scc(-c4cccs4)c23)c1 was tested, and the Potency was “inactive”. With N#CCC(=O)Nc1ccc(C(=O)OCC(=O)c2ccc3c(c2)NC(=O)CO3)cc1 the Potency was “inactive”. CC(C)Oc1ccc(CCc2nnc(SCC(=O)O)n2-c2ccccc2)cc1 was tested, and the Potency was inconclusive [inhibitor, full curve, poor fit]. COc1ccccc1OC(=O)CCN1c2ccccc2Sc2ccccc21 was tested, and the Potency was inconclusive [inhibitor, full curve, poor fit]. CSc1oc(-c2ccc(F)cc2)nc1S(=O)(=O)c1ccc(F)cc1 was tested, and the Potency was “inactive”. COc1cc2c(cc1OC)C(C)N(C(C)=O)CC2 (configuration not stated) was tested, and the Potency was “inactive”. O=[N+]([O-])c1ccc(/C=N/Nc2nc(-c3ccccc3)c3cc(Br)ccc3n2)o1 was tested, and the Potency was inconclusive [inhibitor, full curve, poor fit]. For CC(C)[C@H](NC(=O)c1ccccc1)C(=O)OCC(=O)N1CCCCCC1, the Potency was inconclusive [inhibitor, partial curve]. CCN(CC)S(=O)(=O)c1ccc(OC)c(NC(=S)Nc2ccc(C)c(C)c2)c1 was tested, and the Potency was inconclusive [inhibitor, partial curve, poor fit]. With CCOc1ccc(N(CC)S(=O)(=O)c2ccc3c(c2)n(C)c(=O)c(=O)n3C)cc1 the Potency was inconclusive [inhibitor, full curve, poor fit]. CC1=CC(C#N)(C#N)C(C#N)(C#N)C(c2ccccc2)N1 (configuration not stated) was tested, and the Potency was inconclusive [inhibitor, full curve, poor fit]. In the case of COc1ccc(C2CC(C(F)(F)F)n3ncc(C(=O)Nc4c(C)n(C)n(-c5ccccc5)c4=O)c3N2)cc1 (configuration not stated), the Potency is reported as inconclusive [inhibitor, partial curve, poor fit].
